Results as given in the supplement of paper PMC12217912.
The list shows a part of the results. Sequences were assembled here from the parent chain. Values near 0.05 are background.

B1: TEV protease; numbered along this chain (parent)
chain: MGESLFKGPRDYNPISSSICHLTNESDGHTTSLYGIGFGPFIITNKHLFRRNNGTLVVQSLHGVFKVKDTTTLQQHLVDGRDMIIIRMPKDFPPFPQKLKFREPQREERICLVTTNFQTKSMSSMVSDTSCTFPSGDGIFWKHWIQTKDGQCGSPLVSTRDGFIVGIHSASNFTNTNNYFTSVPKNFMELLTNQEAQQWVSGWRLNADSVLWGGHKVFMVKPEEPFQPVKEATQL

Variants of: B1
Experiment: raw area under fraction-flipped curve 0-4 h after induction (AUC4h, not background-subtracted), DNA-recorder readout of cleavage of the substrate (dimensionless); higher = more cleavage of the substrate by the protease variant
Details: temperature: 34 °C; time window: 0-4 h after rhamnose induction
Protocol: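 In vivo DNA recorder in E. coli TOP10(DE3) ΔrhaA at 34 °C. Each TEVp single-site mutant (parent TEVp 0) is paired with a single-site variant of the 7-mer TEVs (canonical ENLYFQ|S). The substrate sits between flexible linkers in a Bxb1-sfGFP-TEVs-SsrA fusion, so cleavage stabilises Bxb1 and speeds flipping of a recombination array, read by NGS. The value is the raw area under the fraction-flipped curve over 0-4 h after rhamnose induction (AUC4h), with ≥20 reads per time point. It is not background-subtracted; inactive controls average about 0.047.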
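Also: Bxb1 expression induced with 0.2% (w/v) L-rhamnose at OD600 near 0.5, cultures sampled hourly, flipped fraction per protease–substrate barcode pair counted by paired-end Illumina sequencing.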

Variant	area with substrate ENLYFQA	area with substrate ENLYFQC	area with substrate ENLYFQE	area with substrate ENLYFQF	area with substrate ENLYFQH	area with substrate ENLYFQK	area with substrate ENLYFQM	area with substrate ENLYFQN	area with substrate ENLYFQP	area with substrate ENLYFQS	area with substrate ENLYFQW	area with substrate ENLYFQD	area with substrate ENLYFQG	area with substrate ENLYFQI	area with substrate ENLYFQL	area with substrate ENLYFQQ	area with substrate ENLYFQR	area with substrate ENLYFQT	area with substrate ENLYFQV	area with substrate ENLYFQY
MGESLFKGPRDYNPISSSICHLTNESDGHTTSLYGIGFGPFIITNKHLFRRNNGTLVVQSLHGVFKVKDTTTLQQHLVDGRDMIIIRMPKDFPPFPQKLKFREPQREERICLVTTNFQTKSMSSMVSDTSCTFPSGDGIFWKHWIQTKDGQCGSPLVSTRDGFIVGIHSASNFTNTNLYFTSVPKNFMELLTNQEAQQWVSGWRLNADSVLWGGHKVFMVKPEEPFQPVKEATQL [N178L]	0.0782	0.118	0.0868	0.0888	0.104	0.0687	0.151	0.0789	0.0446	0.117	0.0774									
MGESLFKGPRDYNPISSSICHLTNESDGHTTSLYGIGFGPFIITNKHLFRRNNGTLVVQSLHGVFKVKDTTTLQQHLVDGRDMIIIRMPKDFPPFPQKLKFREPQREERICLVTTNFQTKSMSSMVSDTSCTFPSGDGIFWKHWIQTKDGQCGSPLVSTRDGFIVGIHSASNFTNTNNYFTSVPKNFMELLTNQEAQQWVSGWRLNADSVEWGGHKVFMVKPEEPFQPVKEATQL [L211E]	0.113	0.114	0.0482	0.0999			0.0975	0.11	0.0524	0.122	0.0731	0.0956	0.125	0.0721	0.0677	0.0745	0.0663	0.0766	0.0089	
MGESLFKGPRDYNPISSSICHLTNESDGHTTSLYGIGSGPFIITNKHLFRRNNGTLVVQSLHGVFKVKDTTTLQQHLVDGRDMIIIRMPKDFPPFPQKLKFREPQREERICLVTTNFQTKSMSSMVSDTSCTFPSGDGIFWKHWIQTKDGQCGSPLVSTRDGFIVGIHSASNFTNTNNYFTSVPKNFMELLTNQEAQQWVSGWRLNADSVLWGGHKVFMVKPEEPFQPVKEATQL [F38S]	0.0876			0.0596	0.0601	0.0536	0.0695		0.0466	0.0821	0.0508	0.0625	0.0757	0.0477	0.0503	0.0616	0.0678	0.0398	0.0463	0.0715
MGESLFKGPRDYNPISSSICHLTNESDGHTTSLYGIGFGPFIITNKHLFRRNNGTLVVQSLHGVFKVKDTTILQQHLVDGRDMIIIRMPKDFPPFPQKLKFREPQREERICLVTTNFQTKSMSSMVSDTSCTFPSGDGIFWKHWIQTKDGQCGSPLVSTRDGFIVGIHSASNFTNTNNYFTSVPKNFMELLTNQEAQQWVSGWRLNADSVLWGGHKVFMVKPEEPFQPVKEATQL [T72I]	0.0659					0.0612		0.0747	0.0642	0.11	0.0717				0.0459		0.0382			0.0742
MGESLFKGPRDYNPISSSICHLTNESDGHTTSLYGIDFGPFIITNKHLFRRNNGTLVVQSLHGVFKVKDTTTLQQHLVDGRDMIIIRMPKDFPPFPQKLKFREPQREERICLVTTNFQTKSMSSMVSDTSCTFPSGDGIFWKHWIQTKDGQCGSPLVSTRDGFIVGIHSASNFTNTNNYFTSVPKNFMELLTNQEAQQWVSGWRLNADSVLWGGHKVFMVKPEEPFQPVKEATQL [G37D]	0.0464	0.0484		0.0386	0.0308	0.0104				0.0425	0.043			0.0442	0.0543	0.0363	0.0447	0.0417		
MGESLFKGPRDYNPISSSICHLTNESDGHTTSLYGIGFGPFIITNKHLFRRNNGTLVVQSLHGVFKVKDTTTLQQHLVDGRDMIIIRMPKDFPPFPQKLKFREPQREERICLVTTNFQTKSMSSMVSDTSCTFPSGDGIFWKHWIQTKDGQCGSPLVSTRDGFIVGIHSASNFTNTNNYFTSVPKNFMELLTNQEAQQWVSGWRLNADSVLWGGHKVFMVKPEEPFQPVKYATQL [E231Y]	0.0794	0.0862			0.0634			0.0777	0.0681	0.0814				0.0533			0.0552	0.0814	0.0603	
MGESLFKGPRDYNPISSSICHLTNESDGHTTSLYGIGFGPFIITNKHLFRRNNGTLVVQSLHGVFKVKDTTTLQQHLVDGRDMIIIRMPKDFPPFPQKLKFREPQREERIQLVTTNFQTKSMSSMVSDTSCTFPSGDGIFWKHWIQTKDGQCGSPLVSTRDGFIVGIHSASNFTNTNNYFTSVPKNFMELLTNQEAQQWVSGWRLNADSVLWGGHKVFMVKPEEPFQPVKEATQL [C111Q]	0.123					0.0577				0.107	0.061			0.0722	0.0638	0.0807	0.0612		0.0587	0.0746
MGESLFKGPRDYNPISSSICHLTNESDGHTTSLYGIGFGPFIITNKHLFRRNNGTLVVQSLHGVFKVKDTTTLQQHLVDGRDMIIIRMPKDFPPFPQKLKFREPQREERICLVTTNFQTKSMSSMVSDTSCTFPSGDGIFWKHWIQTKDGQCGSPLVSTRDGFIVGIHSASNFTNTNNYFTSVPKNFMELLTNQEAQQWVSGWRLNADSVLWGGHKVFMVKPEEYFQPVKEATQL [P225Y]	0.107				0.0768	0.0583	0.0963	0.0787		0.094		0.0461		0.0635			0.071	0.0731		
MGESLFKGPRDYNPISSSICHLTNESDGHTTSLYGIGFGPFIITNKHLFRRNNGTLVVSSLHGVFKVKDTTTLQQHLVDGRDMIIIRMPKDFPPFPQKLKFREPQREERICLVTTNFQTKSMSSMVSDTSCTFPSGDGIFWKHWIQTKDGQCGSPLVSTRDGFIVGIHSASNFTNTNNYFTSVPKNFMELLTNQEAQQWVSGWRLNADSVLWGGHKVFMVKPEEPFQPVKEATQL [Q59S]	0.101					0.0655				0.0992	0.0711	0.0726			0.0594			0.0671		
MGESLFKGPRDYNPISSSICHLTNESDGHTTSLYGIGFGPFIITNKHLFRRNNGTLVVQSLHGVFKVKDTTTLQQHLVDGRDMIIIRMPKDFPPFPQKLKFREPQREERICLVTTNFQTKSMSSMVSDTSCTFPSGDGIFWKHWIQTKDGQCGSPLKSTRDGFIVGIHSASNFTNTNNYFTSVPKNFMELLTNQEAQQWVSGWRLNADSVLWGGHKVFMVKPEEPFQPVKEATQL [V157K]	0.0532						0.0409	0.0607		0.0637				0.0715	0.0541				0.0382	
